Several values for one entry are separate records, joined by “and”; a condition that tells them apart may be missing. Equal values may be shown once. Over roughly 5,300 compounds, “PER2::LUC luminescence relative to vehicle control” has its median near 0.96; the highest 2% begin near 1.3. This is one part of the list.
Test system: mPer2Luc MEF
Experiment: PER2::LUC luminescence relative to vehicle control (fold of vehicle); higher = higher PER2::LUC reporter signal
Conditions: 10 µM
Procedure, shortened: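 Each value gives PER2::LUC luminescence as fold of vehicle control, measured with the ONE-Glo luciferase assay system in mouse embryonic fibroblasts carrying the mPer2Luc reporter. Cells grown in DMEM with 10% FBS at 37 °C and 5% CO2 were seeded at ~3000 per well in 384-well plates. Library compounds were added at 10 μM 48 h later, and readings were taken 24 h and 30 h after treatment.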

Structure (SMILES)	PER2::LUC luminescence (time after treatment 24 h)	PER2::LUC luminescence (time after treatment 30 h)
CC(C)[C@H](O)C(=O)N[C@@H](C)C(=O)N[C@@H]1C(=O)N(C)CCc2ccccc21	1.05 and 0.967	0.937 and 0.922
Cc1cn(-c2cc(NC(=O)c3ccc(C)c(Nc4nccc(-c5cnccn5)n4)c3)cc(C(F)(F)F)c2)cn1	1.05	1.13
Nc1nc(/C(=C/CC(=O)O)C(=O)N[C@@H]2C(=O)N3C(C(=O)O)=CCS[C@H]23)cs1	0.903	0.975
O=C(Nc1ccc(Cl)cc1CN1C(=O)c2ccccc2C1=O)c1ccccc1O	1.03	1.02
Nc1ccc(/N=N/c2ccccc2)c(N)n1	1.76	1.7
C[C@H](N[C@@H](CCc1ccccc1)C(=O)O)C(=O)N1Cc2ccccc2C[C@H]1C(=O)O	0.982	0.917
CCc1cc(Cl)c(OC)c(C(=O)NC[C@@H]2CCCN2CC)c1O	0.882	0.897
CC1=CC(=O)C2=C(C)CC[C@@H]3[C@H](OC(=O)[C@H]3C)[C@@H]12	0.959	0.978
CN(C)CCOC(=O)C(c1ccccc1)C1(O)CCCC1 (stereo unspecified)	0.923	0.94
O=C(/C=C/c1ccccc1)c1ccc(O)cc1	1.33	1.48
CN1CCC(=C2c3ccccc3CCn3c(C=O)cnc32)CC1	0.987	0.922
O=C(Nc1ccc(CN2CCOCC2)cc1)c1ccc(-c2cccc(Cl)c2)o1	0.955 and 0.883	0.965 and 0.868
Nc1[nH]c(=O)ncc1F	0.87	1.01
CCC(=O)O[C@]1(C(=O)SCF)[C@H](C)C[C@H]2[C@@H]3C[C@H](F)C4=CC(=O)C=C[C@]4(C)[C@@]3(F)[C@@H](O)C[C@@]21C	0.722	1.23
CCN(CC)c1ccc(/C=N/NC(=O)c2ccc(O)cc2)cc1	0.789	0.794
O=C(NCc1nc2ccccc2c(=O)n1-c1ccc(F)cc1)Nc1ccc(Cl)c(C(F)(F)F)c1	1	0.929
N=C(N)NCCCCNC(=N)N	0.976	1.09
C[C@@H](O)[C@H](NC(=O)c1ccc(C#Cc2ccc(CN3CCOCC3)cc2)cc1)C(=O)NO	1.32	1.62
Nc1ccn([C@H]2C[C@H](O)[C@@H](CO)O2)c(=O)n1	1.11	0.96
O=C1[C@H]2CCCC[C@H]2C(=O)N1CCCCN1CCN(c2nsc3ccccc23)CC1	0.834	0.901
C[C@]12C=CC(=O)N[C@@H]1CC[C@@H]1[C@@H]2CC[C@]2(C)[C@@H](C(=O)Nc3cc(C(F)(F)F)ccc3C(F)(F)F)CC[C@@H]12	0.628	0.84
Clc1cccc(Cl)c1NC1=NCCN1	0.971 and 1.02	0.922 and 1.17
CN(C)S(=O)(=O)c1ccc2c(c1)/C(=C/c1cc3c([nH]1)CCCC3)C(=O)N2	1.2	1.06
CN1CCN(C2Cc3ccccc3Sc3ccc(Cl)cc32)CC1 (racemic)	0.763	0.867
CO[C@H]1/C=C/O[C@@]2(C)Oc3c(C)c(O)c4c(O)c(c5c(nc6cc(C)ccn65)c4c3C2=O)NC(=O)/C(C)=C\C=C\[C@H](C)[C@H](O)[C@@H](C)[C@@H](O)[C@@H](C)[C@H](OC(C)=O)[C@@H]1C	1.08	1.05
C=CCN(C)CCCCCCOc1ccc(C(=O)c2ccc(Br)cc2)c(F)c1	0.566	0.602
Cn1ncnc1[C@H]1c2n[nH]c(=O)c3cc(F)cc(c23)N[C@@H]1c1ccc(F)cc1	1.03	0.792

Structure (SMILES)	PER2::LUC luminescence (time after treatment 24 h)	PER2::LUC luminescence (time after treatment 30 h)
CC1(C)CC2C1CC[C@]1(C)CCC3C(C(=O)O)CC(=O)O[C@@]32C1 (stereo partly specified)	0.927	0.931
Cc1cc(O)c(C(=O)N[C@@H](C(=O)N[C@@H]2C(=O)N3C(C(=O)O)=C(CSc4nnnn4C)CS[C@H]23)c2ccc(O)cc2)cn1	0.951	0.982
COc1ccc(-c2nc(N3CCOCC3)c3sc(CN(C)c4ncc(C(=O)NO)cn4)cc3n2)cn1	0.37	0.325
CC(=O)O[C@]1(C(C)=O)CC[C@H]2[C@@H]3C=C(Cl)C4=CC(=O)CC[C@]4(C)[C@H]3CC[C@@]21C	0.646	1.06
CN1CCN(CCc2ccc(Cl)c(Cl)c2)CC1	0.814	0.814
COc1ccc(Cl)c(Nc2nc3ccccc3nc2NS(=O)(=O)c2cccc(NC(=O)C(C)(C)N)c2)c1	0.661	0.598
CCN(CC)C(C)CN1c2ccccc2Sc2ccccc21 (stereo unspecified)	1.04	0.978
CCCNC(=O)NS(=O)(=O)c1ccc(Cl)cc1	0.946	0.842
CN(C)C(=N)NC(=N)N	0.558	0.95
COc1c(C)cnc(Cn2cnc3c(Cl)nc(N)nc32)c1C	0.088	0.064
COc1ccc2c(Oc3ccc(NC(=O)c4c(C)n(CC(C)(C)O)n(-c5ccccc5)c4=O)nc3)ccnc2c1	0.972	0.785
CC(=O)OC/C=C(\C)CC/C=C(\C)CC/C=C(\C)CC/C=C(\C)CC/C=C(\C)CC/C=C(\C)CC/C=C(\C)CC/C=C(\C)CCC=C(C)C	1.01	1.01
c1ccc2c(CCNc3ccc(Nc4ccncc4)cc3)c[nH]c2c1	0.663 and 0.608	0.599 and 0.503
NCCCCCC(=O)O	0.903 and 0.953	1.09 and 0.91
CC(C)CCNC(=O)[C@H](CC(C)C)NC(=O)[C@H]1O[C@@H]1C(=O)O	0.877	0.938
CC1=C(C)C(=O)C(C(CCCCCC(=O)O)c2ccccc2)=C(C)C1=O (stereo unspecified)	1.06	0.847
CNCCc1ccccn1	0.937 and 0.834	0.921 and 0.911
Cc1nc2c([nH]1)-c1ccccc1N(C(=O)c1ccc(NC(=O)c3ccccc3-c3ccccc3)cc1)CC2	0.887	0.918
CC=CC(=O)N(CC)c1ccccc1C	1.29	1.27
CC1CC2C3CCC4=CC(=O)C=CC4(C)C3(F)C(O)CC2(C)C1C(=O)CO (stereo unspecified)	0.497	0.946
CCCCCCCCCCCCCCCC(=O)OC[C@H](O)[C@H]1OC(=O)C(O)=C1O	1 and 0.772	0.992 and 0.863
Cc1csc(-c2nnc(Nc3ccc(Oc4ncccc4-c4ccnc(N)n4)cc3)c3ccccc23)c1	0.841 and 0.763	0.842 and 0.766
Nc1nc2c(ncn2COC(CO)CO)c(=O)[nH]1	0.923	0.92
O=C(c1ccc(F)cc1)C1CCN(CCn2c(=O)[nH]c3ccccc3c2=O)CC1	1.08 and 0.878	0.953 and 0.76
O=C(CCc1ccccc1)N1CCC(O)(Cn2cnc3cc(Cl)ccc3c2=O)CC1	0.949	0.916
C[C@H]1[C@H](C)CC[C@]2(C(=O)O)CC[C@]3(C)C(=CC[C@@H]4[C@@]5(C)CC[C@H](O)C(C)(C)[C@@H]5CC[C@]43C)[C@H]12	1.02	0.982

Reference: the supplement of paper PMC9334596
